From the supplement of paper PMC8728848
Some of the results follow.

What was measured:
Assay in all cases: glycan array binding signal (z-score within array); higher = stronger binding
Settings in all cases: glycan notation: IUPAC condensed, linker removed
[1] = target: Neu5Ac(a2-6)Gal(b1-4)GlcNAc(b1-6)[Gal(b1-3)]GalNAc
Method in brief: (§1)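 The Consortium for Functional Glycomics database supplied 3228 glycan arrays, of which those lacking an available protein sequence were dropped. The binding signal, a within-array Z-score, was averaged across arrays of the same protein sequence and across linkers. Negative scores can be read as non-binding.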

[2] = target: Neu5Ac(a2-6)Gal(b1-4)GlcNAc6S
Method in brief: as §1

[3] = target: Neu5Ac(a2-6)GalNAc
Method in brief: as §1

[4] = target: Neu5Ac(a2-6)GalNAc(b1-4)GlcNAc
Method in brief: as §1

[5] = target: Neu5Ac(a2-6)GalNAc(b1-4)GlcNAc6S
Method in brief: as §1

[6] = target: Neu5Ac(a2-6)GlcNAc(b1-4)GlcNAc
Method in brief: as §1

[7] = target: Neu5Ac(a2-6)GlcNAc(b1-4)GlcNAc(b1-4)GlcNAc
Method in brief: as §1

[8] = target: Neu5Ac(a2-8)Neu5Ac
Method in brief: as §1

[9] = target: Neu5Ac(a2-8)Neu5Ac(a2-3)Gal(b1-3)GalNAc(b1-4)[Neu5Ac(a2-3)]Gal(b1-4)Glc
Method in brief: as §1

[10] = target: Neu5Ac(a2-8)Neu5Ac(a2-3)Gal(b1-3)GalNAc(b1-4)[Neu5Ac(a2-8)Neu5Ac(a2-3)]Gal(b1-4)Glc
Method in brief: as §1

[11] = target: Neu5Ac(a2-8)Neu5Ac(a2-3)Gal(b1-4)Glc
Method in brief: as §1

[12] = target: Neu5Ac(a2-8)Neu5Ac(a2-3)Gal(b1-4)GlcNAc
Method in brief: as §1

[13] = target: Neu5Ac(a2-8)Neu5Ac(a2-3)[Gal(b1-3)GalNAc(b1-4)]Gal(b1-4)Glc
Method in brief: as §1

[14] = target: Neu5Ac(a2-8)Neu5Ac(a2-3)[GalNAc(b1-4)]Gal(b1-4)Glc
Method in brief: as §1

[15] = target: Neu5Ac(a2-8)Neu5Ac(a2-8)Neu5Ac
Method in brief: as §1

[16] = target: Neu5Ac(a2-8)Neu5Ac(a2-8)Neu5Ac(a2-3)Gal(b1-4)Glc
Method in brief: as §1

[17] = target: Neu5Ac(a2-8)Neu5Ac(a2-8)Neu5Ac(a2-3)[Gal(b1-3)GalNAc(b1-4)]Gal(b1-4)Glc
Method in brief: as §1

[18] = target: Neu5Ac(a2-8)Neu5Ac(a2-8)Neu5Ac(a2-3)[GalNAc(b1-4)]Gal(b1-4)Glc
Method in brief: as §1

[19] = target: Neu5Ac(a2-8)Neu5Ac(a2-8)Neu5Ac(a2-8)Neu5Ac(a2-3)[GalNAc(b1-4)]Gal(b1-4)Glc
Method in brief: as §1

[20] = target: Neu5Ac(a2-8)Neu5Gc(a2-3)Gal(b1-4)GlcNAc
Method in brief: as §1

[21] = target: Neu5Ac(b2-6)Gal(b1-4)GlcNAc
Method in brief: as §1

[22] = target: Neu5Ac(b2-6)GalNAc
Method in brief: as §1

[23] = target: Neu5Ac9Ac(a2-3)Gal(b1-3)GlcNAc
Method in brief: as §1

[24] = target: Neu5Ac9Ac(a2-3)Gal(b1-4)GlcNAc
Method in brief: as §1

[25] = target: Neu5Ac9Ac(a2-6)Gal(b1-4)GlcNAc
Method in brief: as §1

[26] = target: Neu5Gc(a2-3)Gal(b1-3)GlcNAc
Method in brief: as §1

[27] = target: Neu5Gc(a2-3)Gal(b1-3)[Fuc(a1-4)]GlcNAc
Method in brief: as §1

[28] = target: Neu5Gc(a2-3)Gal(b1-4)Glc
Method in brief: as §1

[29] = target: Neu5Gc(a2-3)Gal(b1-4)GlcNAc
Method in brief: as §1

[30] = target: Neu5Gc(a2-3)Gal(b1-4)GlcNAc(b1-3)Gal(b1-4)GlcNAc(b1-2)Man(a1-3)[Neu5Gc(a2-3)Gal(b1-4)GlcNAc(b1-3)Gal(b1-4)GlcNAc(b1-2)Man(a1-6)]Man(b1-4)GlcNAc(b1-4)GlcNAc
Method in brief: as §1

[31] = target: Neu5Gc(a2-3)Gal(b1-4)[Fuc(a1-3)]GlcNAc
Method in brief: as §1

[32] = target: Neu5Gc(a2-6)Gal(b1-4)GlcNAc
Method in brief: as §1

[33] = target: Neu5Gc(a2-6)GalNAc
Method in brief: as §1

[34] = target: Neu5Gc(a2-8)Neu5Ac(a2-3)Gal(b1-4)GlcNAc
Method in brief: as §1

[35] = target: Neu5Gc(a2-8)Neu5Gc(a2-3)Gal(b1-4)GlcNAc
Method in brief: as §1

[36] = target: Neu5Gc(a2-8)Neu5Gc(a2-3)Gal(b1-4)GlcNAc(b1-3)Gal(b1-4)GlcNAc
Method in brief: as §1

[37] = target: Neu5Gc(a2-8)Neu5Gc(a2-6)Gal(b1-4)GlcNAc
Method in brief: as §1

[38] = target: Neu5Gc(b2-6)Gal(b1-4)GlcNAc
Method in brief: as §1

B1: HPL (Tachypleus tridentatus) (protein)
chain: MEDDCTCVTDRSLEGKLMKHPSTPAVYQILDGCRRLVPNPPTYNNIYKNWECIQSNILEKLLCKCDSLSNGAELIKGSGDTVYLLSNGVKRPIADPETFNGFCFDWNKIKTYSDIVINSLSTGPIIIIKHHHHHH
glycan array binding signal (z-score) [1]: 0.26 | glycan array binding signal (z-score) [2]: -0.356 | glycan array binding signal (z-score) [3]: -0.114 | glycan array binding signal (z-score) [4]: -0.27 | glycan array binding signal (z-score) [5]: -0.216 | glycan array binding signal (z-score) [6]: -0.447 | glycan array binding signal (z-score) [7]: -0.012 | glycan array binding signal (z-score) [8]: -0.236 | glycan array binding signal (z-score) [9]: 0.063 | glycan array binding signal (z-score) [10]: 0.431 | glycan array binding signal (z-score) [11]: -0.175 | glycan array binding signal (z-score) [12]: -0.359 | glycan array binding signal (z-score) [13]: -0.113 | glycan array binding signal (z-score) [14]: -0.254 | glycan array binding signal (z-score) [15]: -0.143 | glycan array binding signal (z-score) [16]: -0.058 | glycan array binding signal (z-score) [17]: 0.289 | glycan array binding signal (z-score) [18]: -0.215 | glycan array binding signal (z-score) [19]: 0.102 | glycan array binding signal (z-score) [20]: -0.361 | glycan array binding signal (z-score) [21]: -0.383 | glycan array binding signal (z-score) [22]: -0.377 | glycan array binding signal (z-score) [23]: -0.334 | glycan array binding signal (z-score) [24]: -0.231 | glycan array binding signal (z-score) [25]: -0.318 | glycan array binding signal (z-score) [26]: -0.215 | glycan array binding signal (z-score) [27]: -0.155 | glycan array binding signal (z-score) [28]: -0.266 | glycan array binding signal (z-score) [29]: -0.199 | glycan array binding signal (z-score) [30]: 0.164 | glycan array binding signal (z-score) [31]: -0.205 | glycan array binding signal (z-score) [32]: -0.33 | glycan array binding signal (z-score) [33]: -0.359 | glycan array binding signal (z-score) [34]: -0.391 | glycan array binding signal (z-score) [35]: -0.415 | glycan array binding signal (z-score) [36]: -0.29 | glycan array binding signal (z-score) [37]: -0.184 | glycan array binding signal (z-score) [38]: -0.308
